According to PMC4336329 (PLoS ONE, 2015):
Hit rate of the full screen: of about 310,000 compounds, about 2,200 (0.71%) showed an effect of 50% or more. The effect is printed as a negative number. Some of the results follow.

These compounds were tested against human ether-à-go-go-related gene (hERG) potassium channel (human, UniProt Q12809) (assay: primary screen, population patch clamp on CHO cells stably expressing hERG).
human ether-à-go-go-related gene (hERG) potassium channel, sequence (Q12809 whole entry, looked up): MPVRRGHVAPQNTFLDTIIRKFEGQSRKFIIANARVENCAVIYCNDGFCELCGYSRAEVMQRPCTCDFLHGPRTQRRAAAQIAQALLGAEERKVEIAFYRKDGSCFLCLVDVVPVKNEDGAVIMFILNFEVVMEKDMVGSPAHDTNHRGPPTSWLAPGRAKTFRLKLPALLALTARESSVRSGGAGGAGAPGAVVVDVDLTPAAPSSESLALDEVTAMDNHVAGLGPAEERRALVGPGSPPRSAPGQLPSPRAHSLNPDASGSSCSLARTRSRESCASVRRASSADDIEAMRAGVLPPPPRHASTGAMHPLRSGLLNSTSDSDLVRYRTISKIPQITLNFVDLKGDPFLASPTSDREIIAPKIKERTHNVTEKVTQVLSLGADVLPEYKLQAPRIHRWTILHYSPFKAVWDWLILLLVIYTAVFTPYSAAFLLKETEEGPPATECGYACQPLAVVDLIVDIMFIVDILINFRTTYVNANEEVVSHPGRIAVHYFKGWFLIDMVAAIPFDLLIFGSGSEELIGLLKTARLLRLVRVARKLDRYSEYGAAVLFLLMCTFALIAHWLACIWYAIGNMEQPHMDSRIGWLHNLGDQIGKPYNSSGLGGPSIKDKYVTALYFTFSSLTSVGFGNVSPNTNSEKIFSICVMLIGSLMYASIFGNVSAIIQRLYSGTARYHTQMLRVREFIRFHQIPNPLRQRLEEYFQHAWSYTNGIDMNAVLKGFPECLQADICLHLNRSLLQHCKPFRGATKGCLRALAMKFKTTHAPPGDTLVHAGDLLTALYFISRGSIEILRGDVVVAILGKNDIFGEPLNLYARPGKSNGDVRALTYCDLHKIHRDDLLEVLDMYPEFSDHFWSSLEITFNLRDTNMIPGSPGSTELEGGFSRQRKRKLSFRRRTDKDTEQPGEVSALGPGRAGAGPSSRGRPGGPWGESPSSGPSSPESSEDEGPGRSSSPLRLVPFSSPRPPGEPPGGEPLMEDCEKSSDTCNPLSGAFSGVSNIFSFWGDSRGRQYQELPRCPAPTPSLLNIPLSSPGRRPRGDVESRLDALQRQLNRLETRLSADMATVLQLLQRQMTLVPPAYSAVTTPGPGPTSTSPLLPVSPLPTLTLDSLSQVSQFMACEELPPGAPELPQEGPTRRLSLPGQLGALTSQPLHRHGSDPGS

| Structure (SMILES) | hERG current change (%, negative = inhibition) at 1uM [%] |
| --- | --- |
| COc1cc(Cl)c(S(=O)(=O)NCCCN2CCOCC2)cc1Cl | 9.83 |
| Cc1noc(C)c1COc1ccc(CC(=O)NCc2ccccc2)cc1 | 7.7 |
| CCCc1[nH]nc2c1C(CCc1ccccc1)C(C#N)=C(N)O2 (stereo not shown) | 18.3 |
| O=C(NCc1cccnc1)C(=O)NCC1CCCO1 (stereo not shown) | 17.7 |
| CCn1cc(CN2CCCC(C(=O)c3sccc3C)C2)cn1 (stereo not shown) | -2.01 |
| N#CC1=C(N)Oc2n[nH]c(-c3ccncc3)c2C1c1ccsc1 (stereo not shown) | -2.44 |
| CSc1ncc(C(=O)Nc2cccc(S(N)(=O)=O)c2)n1-c1ccccc1 | 26.1 |
| Cc1ccc(-c2nnn(CC(=O)N(c3ccccc3F)C(C(=O)NCC3CCCO3)c3c[nH]c4ccccc34)n2)cc1 (stereo not shown) | -1.17 |
| CC1(C)CN(c2ccc(-c3ccnc4ncnn34)cc2)C1=O | 9.34 |
| CCN(C(=O)CSc1nc2cc(C(F)(F)F)ccc2n1Cc1ccccc1)C1CCS(=O)(=O)C1 (stereo not shown) | 8.83 |
| O=C(O)c1cc2c(o1)CCC/C2=N\O | 8.6 |
| CC(=O)Nc1ccc(S(=O)(=O)Nc2cc(C)cn(Cc3ccc(C)cc3)c2=O)cc1 | 10.5 |
| Cc1ccccc1NC1=C(Cl)C(=O)OC1NC(=O)c1ccccc1 (stereo not shown) | 14.9 |
| CC1CC(C)CN(CCOc2cccc3ccccc23)C1 (stereo not shown) | 6.81 |
| COc1ccc(CNCC(O)(c2ccccc2)c2ccc(F)cc2)cc1 (stereo not shown) | -45.9 |
| CCOc1ccc2nc(N3CCC(C(=O)N4CCN(c5ccccn5)CC4)CC3)sc2c1 | -17.4 |
| CCOc1cc(C(=O)NCCOC)ccc1OC | 4.99 |
| Cc1ccc(C(=O)COC(=O)c2cccc(NC(=O)c3ccc([N+](=O)[O-])cc3[N+](=O)[O-])c2)cc1 | 13.6 |
| CCc1nnc(N/N=C/c2ccccc2Cl)n1N.Cl | 11.1 |
| Cc1cccc(C(C)C)c1NC(=O)C1CN(S(=O)(=O)c2ccccc2)CCN1S(=O)(=O)c1ccccc1 (stereo not shown) | 7.22 |
| COc1ccccc1CCNC(=O)CCNS(=O)(=O)c1ccc(NC(C)=O)cc1 | 19.7 |
| Cc1cc(OC(=O)C(c2ccccc2)c2ccccc2)c([N+](=O)[O-])c(=O)[nH]1 | 17.2 |

| Structure (SMILES) | hERG current change (%, negative = inhibition) at 1uM [%] |
| --- | --- |
| Nc1nc2nccc(-c3ccccn3)n2n1 | 6.42 |
| O=C1COc2ccc(N3C(=O)c4ccccc4C3=O)cc2N1 | 10.5 |
| CCC(=O)Nc1cccc(-c2cn3ccccc3n2)c1 | 8.01 |
| Cc1cccnc1NC(=S)NCc1ccco1 | -0.423 |
| COc1cc(OC)cc(-c2n[nH]c(=S)n2-c2ccc3c(c2)OCO3)c1 | 11.3 |
| COc1ccc(C(CNC(=O)Nc2ccc(Cl)cc2)N2CCN(C)CC2)cc1 (stereo not shown) | 14.3 |
| Cc1ccc(-c2noc(CNC(=O)c3ccoc3C)n2)cc1 | 10.7 |
| Cc1ccc(C(=O)C[n+]2cc(-c3ccc(C)cc3)n3c2CCCCC3)cc1.[Br-] | -18.2 |
| CCCc1cc(=O)[nH]c(SCC(=O)N2C(C)CCCC2C)n1 (stereo not shown) | 8.35 |
| Cc1ccc(C(=O)O)cc1S(=O)(=O)NCC1CCCO1 (stereo not shown) | 6.72 |
| CC(C)Cn1c(N)c(C=O)c(=O)[nH]c1=O | 7.91 |
| COC(=O)c1ccc(C2NC(=O)NC(C)=C2C(=O)N(C)C)cc1 (stereo not shown) | 5.68 |
| CCOC(=O)C1=C(C)NC2=C(C(=O)CCC2)C1c1ccc(N(C)C)cc1 (stereo not shown) | 6.74 |
| CCCn1c(SCC(=O)NC2CCCC2)nnc1-c1ccccn1 | 15.4 |
| COc1ccccc1N1C(=O)NC(=O)C(CCc2ccncc2)(CCc2ccncc2)C1=O | -5.11 |
| O=C(O)COc1ccc(Br)cc1C(c1c(C(=O)O)[nH]c2ccccc12)c1c(C(=O)O)[nH]c2ccccc12 | 19.7 |
| O=C(Cn1ncn2c(cc3ccccc32)c1=O)NCCC1=CCCCC1 | 12.5 |
| COc1ccccc1CNC(=O)COC(=O)c1ccc(C)s1 | 12.2 |
| FC(F)(F)c1cc(C(F)(F)F)c2ccc(N3CCOCC3)nc2n1 | 13.3 |
| CC1CCCN(Cc2nc3c(c(=O)n(C)c(=O)n3C)n2Cc2c(F)cccc2Cl)C1 (stereo not shown) | 8.62 |
| O=C(c1ccc2c(c1)OCO2)C1CCCN(Cc2cn[nH]c2-c2cccc(F)c2)C1 (stereo not shown) | -42.7 |
| CCCCC(=O)N/N=C/c1c(O)n(CCc2ccc(OC)c(OC)c2)c(=O)[nH]c1=O | 4.85 |

| Structure (SMILES) | hERG current change (%, negative = inhibition) at 1uM [%] |
| --- | --- |
| C/C(NC(=O)c1cccc(F)c1)=C1/C(=O)C[C@@H]2[C@H]1C2(C)C | 10.6 |
| CCOC(=O)c1c(C)c(C(=O)NCCCOC(C)C)c(C)n1C | 2.8 |
| COc1cccc(-n2c(=O)c3c(C)c(C(=O)N(C)C)sc3n(CC(=O)NCCc3ccc(OC)c(OC)c3)c2=O)c1 | 5.15 |
| COc1ccc(NC(=O)CSc2cc(C)ccc2C)cn1 | 9.89 |
| CN1CCN(S(=O)(=O)c2cccc(C(=O)Nc3cc(C(N)=O)cc(C(N)=O)c3)c2)CC1 | 11.7 |
| Cc1ccc(S(=O)(=O)N2CCOCC2)cc1NC(=O)CSc1nnnn1C1CCCC1 | 4.17 |
| CCOc1ccc2oc(C(=O)NN3C(C)CCCC3C)c(C)c2c1 (stereo not shown) | 5.61 |
| CCOC(=O)c1sc2nc(C(C)C)c3c(c2c1N)CCC3 | 2.49 |
| CCCn1c(=O)[nH]c(=O)c2c1nc(-c1ccc(OC(F)F)cc1)n2CCN1CCOCC1 | -6.58 |
| CNC(=S)NCc1ccc2[nH]c(C)cc2c1 | 7.26 |
| Nc1nc(Cl)nc2c1ncn2[C@H]1C[C@H](O)[C@@H](CO)O1 | 15.7 |
| COc1cccc(C2CC(c3cccc(OC)c3)n3nc(N)nc3N2)c1 (stereo not shown) | 1.52 |
| CC(C)CNc1nc(N)c([N+](=O)[O-])c(NCc2ccccc2)n1 | 11.8 |
| CC(=O)Nc1ccc(N2C(=O)CC(Sc3nc4ccccc4s3)C2=O)cc1 (stereo not shown) | 14.6 |
| Br.O=C(Cn1c(NCCCO)nc2ccccc21)c1ccc(F)cc1 | -0.355 |
| CCCN(C(=O)CSc1n[nH]c(-c2ccc(OC)cc2)n1)c1c(N)n(Cc2ccccc2)c(=O)[nH]c1=O | 20.1 |
| CC(NC(=O)C1CCCO1)c1ccccc1 (stereo not shown) | 9.66 |
| Cc1nn(-c2ccccc2)c2sc(-c3n[nH]c(=S)o3)cc12 | 11.9 |
| CC1(C)Cc2c(ccc3ccccc23)C(=O)N1 | 10.8 |
| COc1ccccc1CCNC(=O)c1ccc(OC)c(OC2CCN(C(C)C)CC2)c1 | -4.22 |
| O=C(CC(=O)Nc1cccnc1)Nc1cccnc1 | 15 |
| CCCn1c(S(=O)(=O)O)nc2ccccc21 | 12.5 |

| Structure (SMILES) | hERG current change (%, negative = inhibition) at 1uM [%] |
| --- | --- |
| O=C1CCc2cc(S(=O)(=O)Nc3ccc(F)cc3)ccc2N1 | 16.3 |
| CCCCCCCCNC(=O)c1ccc(C)cc1 | 14.9 |
| COC(=O)c1cc(S(=O)(=O)NCc2ccc(S(N)(=O)=O)cc2)oc1C | 13.7 |
| COc1ccc(CNC(=O)CC2C(=O)NCCN2C2Cc3ccccc3C2)cc1 (stereo not shown) | -4.37 |
| COc1ccc(NC(=O)CN(C)C(=O)CCC(=O)c2ccc(C)cc2)cc1 | 4.81 |
| CC1CCN(C(=O)CSc2nnc(CN3CCOCC3)n2-c2ccccc2)CC1 | 12.6 |
| COc1ccc(NC(=O)C2C3C=CC4(O3)C2C(=O)N(CCCN2CCCCC2)C4C(=O)NC2CCCC(C)C2C)cc1 (stereo not shown) | 13.2 |
| Cc1[nH]c2ccc3c(ncn3CCC#N)c2c1C | 6.7 |
| Cc1ccc(C(=O)Nc2sc(Cc3ccc4c(c3)OCO4)c(C)c2C(N)=O)cc1 | -1.81 |
| CCCC1O[C@@H]2CC3C4CCC5=CC(=O)C=C[C@]5(C)C4C(OC(C)=O)C[C@]3(C)[C@]2(C(=O)COC(C)=O)O1 (stereo partly shown) | 6.79 |
| O=C(N/N=C/c1cccc2ccccc12)c1n[nH]c2c1CCCC2 | 2.66 |
| Nc1nc(Cl)cc(Oc2ccc([N+](=O)[O-])cc2)n1 | 12.7 |
| Cc1ccc(NC(=O)C2CCCN(S(=O)(=O)c3c(C)noc3C)C2)nc1 (stereo not shown) | 0.366 |
| COc1ncccc1C(=O)N1CCCC(N2CCN(c3cccc(Cl)c3)CC2)C1 (stereo not shown) | 5.55 |
| CC(NC(=O)c1ccncc1)c1ccccc1 (stereo not shown) | 15 |
| Cn1ccnc1C(=O)c1ccc(N)cc1 | 15.9 |
| Cc1ccc(NC=C(S(=O)(=O)c2ccccc2)S(=O)(=O)c2ccccc2)cc1 | 3.59 |
| Cc1nnc(SCC(=O)c2cc(C)n(C3CC3)c2C)s1 | -3.57 |
| COc1cccc(C2(O)CCN(C(=O)C(C)C)CC2)c1 | 4.46 |
| CCOc1cc(/C=C2\CN(CC)C/C(=C\c3ccc(O)c(OCC)c3)C2=O)ccc1O.Cl | -2.77 |
| O=C(NCc1nnc(SCc2ccc(C(F)(F)F)cc2)n1-c1ccccc1)C12CC3CC(CC(C3)C1)C2 | 8.2 |
| Nc1nc2n(n1)C(=O)CC(c1ccc(Cl)cc1)N2 (stereo not shown) | 12.9 |
